# According to the antibiotic and cytotoxicity screens of Wong et al. (2023):
# The list shows a part of the results.
# What was measured:
# HSkMC = human skeletal muscle cells; test: cytotoxicity call (relative viability < 0.9); settings: 10 µM
# HepG2 = test: cytotoxicity call (relative viability < 0.9); settings: 10 µM
# S. aureus RN4220 = test: growth inhibition call (relative growth <= 0.2); settings: 50 µM
SMILES,cytotoxicity call (HSkMC),cytotoxicity call (HepG2),growth inhibition call (S. aureus RN4220)
C[C@H]1CN([C@@H](C)CO)C(=O)Cc2cc(NC(=O)CCN3CCOCC3)ccc2O[C@@H]1CN(C)S(=O)(=O)c1cccs1,inactive,inactive,inactive
C[C@@H]1CN([C@@H](C)CO)C(=O)c2cc(NC(=O)C3CC3)ccc2O[C@@H]1CN(C)S(=O)(=O)c1cn(C)cn1,inactive,inactive,inactive
CN(C)C1C(O)=C(C(N)=O)C(=O)C2(O)C(O)=C3C(=O)c4c(O)cccc4C(C)(O)C3C(O)C12.Cl (stereo not given),inactive,inactive,inactive
COc1ccc(CN(C)C[C@H]2OCCCC[C@H](C)Oc3ccc(NC(=O)C4CCCCC4)cc3C(=O)N([C@@H](C)CO)C[C@@H]2C)cc1,inactive,inactive,inactive
COCC(=O)N(C)C[C@@H]1Oc2cc(C#Cc3cccnc3)ccc2S(=O)(=O)N([C@@H](C)CO)C[C@@H]1C,inactive,inactive,inactive
C[C@@H]1CCCCO[C@H](CN(C)C(=O)C2CCCCC2)[C@H](C)CN([C@@H](C)CO)C(=O)c2cc(NC(=O)Nc3cccc4ccccc34)ccc2O1,inactive,inactive,inactive
C[C@@H]1CN([C@@H](C)CO)C(=O)c2cc(NC(=O)c3ccncc3)ccc2O[C@@H]1CN(C)S(=O)(=O)c1ccccc1,inactive,inactive,inactive
c1ccc2c(-c3ccncc3)c[nH]c2c1,inactive,inactive,inactive
C[C@@H]1CN([C@@H](C)CO)C(=O)CCCn2nncc2CO[C@H]1CN(C)S(C)(=O)=O,inactive,inactive,inactive
NC(=O)c1ncn([C@@H]2O[C@H](CO)[C@@H](O)[C@H]2O)n1,inactive,inactive,inactive
C[C@@H]1CN([C@H](C)CO)C(=O)Cc2cc(NC(=O)Cn3cnnn3)ccc2O[C@@H]1CN(C)S(=O)(=O)c1ccc(F)cc1,inactive,inactive,inactive
C[C@H]1CN([C@@H](C)CO)C(=O)c2cc(NC(=O)CCCN(C)C)ccc2O[C@@H]1CN(C)S(=O)(=O)c1ccc(F)cc1,inactive,inactive,inactive
C[C@H]1CN([C@@H](C)CO)S(=O)(=O)c2ccc(C#Cc3ccccc3)cc2O[C@H]1CN(C)C(=O)Cc1ccccn1,inactive,inactive,inactive
C[C@@H]1CCCCO[C@H](CN(C)C(=O)Nc2ccccc2)[C@H](C)CN([C@H](C)CO)C(=O)c2cc(NC(=O)Cc3ccccc3)ccc2O1,inactive,inactive,inactive
C[C@@H]1CN([C@@H](C)CO)C(=O)c2cc(C#CC3CCCC3)cnc2O[C@@H]1CN(C)S(=O)(=O)c1cccc(F)c1,inactive,inactive,inactive
C[C@@H]1CCCCO[C@@H](CN(C)Cc2ccccc2)[C@@H](C)CN([C@@H](C)CO)C(=O)c2cc(NC(=O)Nc3ccc4c(c3)OCO4)ccc2O1,inactive,inactive,inactive
C[C@H]1CN([C@@H](C)CO)C(=O)Cc2cc(NC(=O)Cc3cn(C)c4ccccc34)ccc2O[C@@H]1CN(C)CC1CCCCC1,inactive,inactive,inactive
C[C@@H]1CN([C@H](C)CO)S(=O)(=O)c2ccc(Br)cc2O[C@@H]1CN(C)C(=O)C1CCCCC1,inactive,inactive,inactive
O=C(C[C@H]1C[C@@H]2c3cc(NC(=O)Nc4ccccc4F)ccc3O[C@@H]2[C@H](CO)O1)NCc1ccc(Oc2ccccc2)cc1,active,inactive,inactive
COc1ccc(S(=O)(=O)N(C)C[C@H]2OCCCC[C@H](C)Oc3ccc(NC(=O)Nc4ccccc4)cc3C(=O)N([C@H](C)CO)C[C@H]2C)cc1,inactive,inactive,inactive
COc1ccccc1CN(C)C[C@H]1OCc2ccccc2-c2c(n(C)c3ccccc23)C(=O)N([C@H](C)CO)C[C@H]1C,inactive,inactive,inactive
C[C@H]1CN([C@@H](C)CO)C(=O)c2cccc(NC(=O)Nc3ccc4c(c3)OCO4)c2O[C@@H]1CN(C)C(=O)Nc1cccc2ccccc12,inactive,inactive,inactive
C[C@H](CO)N1C[C@H](C)[C@H](CN(C)S(=O)(=O)c2cccc(F)c2)Oc2ncc(-c3ccccc3)cc2C1=O,inactive,inactive,inactive
CCOC(=O)Nc1ccc(C)s1,inactive,inactive,inactive
C[C@H](CO)N1C[C@H](C)[C@H](CN(C)Cc2ccncc2)Oc2ccc(NC(=O)CCN3CCOCC3)cc2C1=O,inactive,inactive,inactive
C[C@@H]1CN([C@@H](C)CO)C(=O)Cc2cc(NC(=O)Cn3cnnn3)ccc2O[C@@H]1CN(C)C(=O)Nc1ccc(F)cc1,inactive,inactive,inactive
Cc1ccc(S(=O)(=O)N(C)C[C@@H]2Oc3ccc(NS(=O)(=O)c4cccs4)cc3CC(=O)N([C@@H](C)CO)C[C@H]2C)cc1,inactive,inactive,inactive
OC[C@H]1NC[C@@H](O)[C@@H](O)[C@@H]1O,inactive,inactive,inactive

SMILES,cytotoxicity call (HSkMC),cytotoxicity call (HepG2),growth inhibition call (S. aureus RN4220)
C[C@H]1CCCCO[C@H](CN(C)CC2CCCCC2)[C@@H](C)CN([C@@H](C)CO)C(=O)c2cc(NC(=O)NC3CCCCC3)ccc2O1,inactive,active,inactive
COc1ccccc1S(=O)(=O)N(C)C[C@H]1Oc2cc(Br)ccc2S(=O)(=O)N([C@@H](C)CO)C[C@H]1C,inactive,inactive,inactive
Cc1noc(C)c1S(=O)(=O)Nc1ccc2c(c1)CC(=O)N([C@H](C)CO)C[C@H](C)[C@H](CN(C)Cc1ccc3c(c1)OCO3)O2,inactive,inactive,inactive
COc1ccc(S(=O)(=O)Nc2ccc3c(c2)CC(=O)N([C@@H](C)CO)C[C@@H](C)[C@@H](CN(C)C(=O)Nc2c(C)noc2C)O3)cc1,inactive,inactive,inactive
COCC(=O)Nc1ccc2c(c1)OC[C@@H](C)N(C(=O)Nc1ccccc1F)C[C@@H](C)[C@H](OC)CN(C)C2=O,inactive,inactive,inactive
C[C@@H]1CN([C@@H](C)CO)S(=O)(=O)c2ccc(C#Cc3cccc(F)c3)cc2O[C@@H]1CN(C)C(=O)CN1CCOCC1,inactive,inactive,inactive
COc1cccc(-c2ccc3c(c2)O[C@@H](CN(C)C(=O)C2CCOCC2)[C@@H](C)CN([C@@H](C)CO)S3(=O)=O)c1,inactive,inactive,inactive
C[C@@H]1CN([C@H](C)CO)C(=O)c2cccc(NC(=O)Nc3ccc(C(F)(F)F)cc3)c2O[C@H]1CN(C)Cc1ccc(C(F)(F)F)cc1,inactive,active,inactive
Nc1cc[nH]c(=O)n1,inactive,inactive,inactive
NC1=NC(=O)[C@@H]2N=C(Br)N([C@H]3O[C@H]4COP(=O)(O)O[C@@H]4[C@@H]3O)[C@H]2N1,inactive,inactive,inactive
C[C@@H]1CN([C@H](C)CO)C(=O)Cc2cc(NC(=O)Nc3ccc(C(F)(F)F)cc3)ccc2O[C@@H]1CN(C)Cc1ccc(Oc2ccccc2)cc1,active,active,inactive
CCCNC(=O)N(C)C[C@@H]1Oc2cc(C#Cc3ccccn3)ccc2S(=O)(=O)N([C@H](C)CO)C[C@@H]1C,inactive,inactive,inactive
Cn1c(=O)c2c(ncn2C)n(C)c1=O,inactive,inactive,inactive
COc1ccc(NC(=O)N(C)C[C@H]2OCCCC[C@@H](C)Oc3ccc(NC(=O)Nc4ccc(C(F)(F)F)cc4)cc3C(=O)N([C@H](C)CO)C[C@@H]2C)cc1,inactive,inactive,inactive
CC(C)NC(=O)Nc1ccc2c(c1)C(=O)N([C@H](C)CO)C[C@H](C)[C@H](CN(C)Cc1ccc(-c3ccccc3)cc1)O2,inactive,inactive,inactive
N#C[C@@H]1[C@H](c2ccc(C#Cc3ccccn3)cc2)[C@@H](CO)N1C(=O)CN1CCOCC1,inactive,inactive,inactive
C[C@H](CO)N1C[C@H](C)[C@@H](CN(C)Cc2ccncc2)Oc2ccc(NC(=O)CCN3CCOCC3)cc2CC1=O,inactive,inactive,inactive
COc1ccccc1C#Cc1cnc2c(c1)C(=O)N([C@H](C)CO)C[C@@H](C)[C@H](CN(C)C(=O)CC1CC1)O2,inactive,inactive,inactive
C[C@H]1CN([C@@H](C)CO)C(=O)Cc2cc(NS(=O)(=O)c3ccc(F)cc3)ccc2O[C@@H]1CN(C)S(=O)(=O)c1ccccc1,inactive,inactive,inactive
C[C@@H]1CN([C@@H](C)CO)S(=O)(=O)c2ccc(C#Cc3ccncc3)cc2O[C@H]1CN(C)C(=O)Nc1ccc2c(c1)OCO2,active,active,inactive
C[C@H]1CN([C@@H](C)CO)C(=O)c2cc(C#Cc3ccccc3F)cnc2O[C@H]1CN(C)C(=O)C1CCOCC1,inactive,inactive,inactive
COc1ccc(NC(=O)N(C)C[C@@H]2OCCCC[C@@H](C)Oc3ccc(NC(=O)c4ccncc4)cc3C(=O)N([C@H](C)CO)C[C@H]2C)cc1,inactive,inactive,inactive
CCCCS(=N)(=O)CC[C@H](N)C(=O)O (stereo not given in full),inactive,inactive,inactive
COc1cccc(c1)CN1C[C@]2(CCN(CC2)S(=O)(=O)C)c2c(n(c3cc(ccc23)OC)C)[C@@H]1CO,inactive,inactive,inactive
C[C@@H]1CCCCO[C@@H](CN(C)C(=O)Nc2ccc3c(c2)OCO3)[C@H](C)CN([C@@H](C)CO)C(=O)c2cc(NC(=O)Nc3ccc(C(F)(F)F)cc3)ccc2O1,inactive,inactive,inactive
COc1ccc(NC(=O)Nc2ccc3c(c2)C(=O)N([C@@H](C)CO)C[C@@H](C)[C@@H](CN(C)C(=O)NC2CCCCC2)OCCCC[C@H](C)O3)cc1,inactive,inactive,inactive
Cc1noc(C)c1NC(=O)Nc1ccc2c(c1)C(=O)N([C@H](C)CO)C[C@H](C)[C@H](CN(C)C(=O)Nc1ccc(C(F)(F)F)cc1)OCCCC[C@H](C)O2,inactive,inactive,inactive
